Data as given in paper PMC4549061.
Where two headings read alike, the source gives them in different places. No constants are given. Whether binding was seen depends on the method and setting. Binding seen in cells or lysates may run through a third protein. Some entries that bind do so weakly or less than the wild type. For some of these results: Sequences can lack the tags named with a protein.

Chains of the proteins cited; added tags and fusions are not shown. Lines headed by an entry give the natural chain unless they say otherwise; changes in a name come on top. Residues count along the entry.
UniProt Q04735: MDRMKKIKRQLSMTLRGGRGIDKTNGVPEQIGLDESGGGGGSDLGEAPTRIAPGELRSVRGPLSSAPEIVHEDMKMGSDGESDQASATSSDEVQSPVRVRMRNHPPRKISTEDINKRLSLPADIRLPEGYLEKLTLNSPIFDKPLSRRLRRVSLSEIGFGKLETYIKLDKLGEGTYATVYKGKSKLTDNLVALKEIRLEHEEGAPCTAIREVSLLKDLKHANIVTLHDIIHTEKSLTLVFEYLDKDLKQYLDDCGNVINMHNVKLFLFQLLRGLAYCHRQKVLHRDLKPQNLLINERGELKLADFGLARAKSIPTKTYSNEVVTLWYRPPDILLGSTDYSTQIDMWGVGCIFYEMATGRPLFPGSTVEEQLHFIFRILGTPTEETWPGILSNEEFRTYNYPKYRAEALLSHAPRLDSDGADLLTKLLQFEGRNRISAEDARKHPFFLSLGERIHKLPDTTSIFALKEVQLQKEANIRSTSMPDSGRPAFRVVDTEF
CDK16-Flag protein kinase domain alone: residues 165-446 of Q04735
UniProt D3YUJ3: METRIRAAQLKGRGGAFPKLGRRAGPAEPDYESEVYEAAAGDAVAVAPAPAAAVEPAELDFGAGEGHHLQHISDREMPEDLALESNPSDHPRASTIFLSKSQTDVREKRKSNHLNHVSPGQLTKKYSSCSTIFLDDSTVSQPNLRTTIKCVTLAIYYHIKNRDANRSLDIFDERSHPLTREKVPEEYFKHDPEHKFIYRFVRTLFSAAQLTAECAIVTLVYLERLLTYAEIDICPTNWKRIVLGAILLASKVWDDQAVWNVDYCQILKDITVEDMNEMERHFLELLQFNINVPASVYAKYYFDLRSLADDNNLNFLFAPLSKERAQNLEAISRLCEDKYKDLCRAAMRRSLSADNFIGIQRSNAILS

Key:
[1] = biological target: cyclin-dependent kinase 16 (CDK16), endogenous in mouse testis (mouse (endogenous in testis)) (UniProt Q04735); assay: co-IP; mouse testicular lysate in IP buffer (150mM NaCl, 50mM Tris, 1mM EGTA, 0.2% NP-40); CDK16 immunoprecipitated with CDK16 antibody (1:40), 4°C, 2 hours; western blot for CCNYL1
[2] = biological target: CDK16-Flag (C-terminal Flag-tagged cyclin-dependent kinase 16) (mouse) (UniProt Q04735); assay: co-IP; HEK293T cells co-transfected with HA- and Flag-tagged plasmids; lysed in IP buffer (150mM NaCl, 50mM Tris, 1mM EGTA, 0.2% NP-40); anti-HA or anti-Flag conjugated agarose, 4°C, 2 hours; western blot
[3] = biological target: CDK16-Flag S110A mutant (mouse) (UniProt Q04735); assay: as above
[4] = biological target: CDK16-Flag S110D mutant (mouse) (UniProt Q04735); assay: as above
[5] = biological target: CDK16-Flag S146A mutant (mouse) (UniProt Q04735); assay: as above
[6] = biological target: CDK16-Flag S146D mutant (mouse) (UniProt Q04735); assay: as above
[7] = biological target: CDK16-Flag S153A mutant (mouse) (UniProt Q04735); assay: as above
[8] = biological target: CDK16-Flag S153D mutant (mouse) (UniProt Q04735); assay: as above
[9] = biological target: CDK16-Flag S36A mutant (mouse) (UniProt Q04735); assay: as above
[10] = biological target: CDK16-Flag S36D mutant (mouse) (UniProt Q04735); assay: as above
[11] = biological target: CDK16-Flag S480A mutant (mouse) (UniProt Q04735); assay: as above
[12] = biological target: CDK16-Flag S480D mutant (mouse) (UniProt Q04735); assay: as above
[13] = biological target: CDK16-Flag S78A mutant (mouse) (UniProt Q04735); assay: as above
[14] = biological target: CDK16-Flag T175A mutant (mouse) (UniProt Q04735); assay: as above
[15] = biological target: CDK16-Flag T175D mutant (mouse) (UniProt Q04735); assay: as above
[16] = biological target: CDK16-Flag protein kinase domain alone (mouse) (UniProt Q04735); assay: as above
[17] = biological target: K194R CDK16-Flag mutant (kinase dead) (mouse) (UniProt Q04735); assay: as above
[18] = biological target: S119A CDK16-Flag mutant (mouse) (UniProt Q04735); assay: as above
[19] = biological target: CDK16-Flag (C-terminal Flag-tagged cyclin-dependent kinase 16) (mouse) (UniProt Q04735); assay: as above; remark: listed apart in the source

Cyclin Y-like 1 (CCNYL1), endogenous in mouse testis (from UniProt D3YUJ3 1-367)
binding [1]: binds

CCNYL1-HA (N-terminal HA-tagged Cyclin Y-like 1) (from UniProt D3YUJ3 1-367)
binding [2]: binds
binding [3]: binds
binding [4]: binds
binding [5]: binds weakly
binding [6]: binds weakly
binding [7]: binds
binding [8]: binds
binding [9]: binds
binding [10]: binds
binding [11]: binds
binding [12]: binds
binding [13]: binds
binding [14]: binds
binding [15]: binds
binding [16]: no binding
binding [17]: binds
binding [18]: binds

B1: CCNY-HA (HA-tagged Cyclin Y) (protein, UniProt Q8BGU5 1-341)
chain: MGNTTSCCVSSSPKLRRNAHSRLESYRPDTDLSREDTGCNLQHISDRENIDDLNMEFNPSDHPRASTIFLSKSQTDVREKRKSLFINHHPPGQTSRKYSSCSTIFLDDSTVSQPNLKYTIKCVALAIYYHIKNRDPDGRMLLDIFDENLHPLSKSEVPPDYDKHNPEQKQIYRFVRTLFSAAQLTAECAIVTLVYLERLLTYAEIDICPANWKRIVLGAILLASKVWDDQAVWNVDYCQILKDITVEDMNELERQFLELLQFNINVPSSVYAKYYFDLRSLAEANNLSFPLEPLSRERAHKLEAISRLCEDKYKDLRKPMRKRSASADNLILPRWSPAIIS
binding [19]: binds
